# The supplement of paper PMC8728848
# This is one part of the list.
# B1: Cohesin-marm-DC-ASGPR-CRD (protein)
# chain: LDITSHHHHHHDDLDAVRIKVDTVNAKPGDTVRIPVRFSGIPSKGIANCDFVYSYDPNVLEIIEIEPGDIIVDPNPDKSFDTAVYPDRKIIVFLFAEDSGTGAYAITKDGVFATIVAKVKEGAPNGLSVIKFVEVGGFANNDLVEQKTQFFDGGVNVGDTTEPATPTTPVTTPTTTDDLDAASCPINWVEHQGSCYWFSRSGKTWPEAERYCQLENTHLVVINSREEQNFVQAHLGSAYTWMGLSDPEGVWKWVDGTDYSSGFQNWKPGQPDDWQGHGLGGGEDCAHFHPDGRWNDDVCQRSYHWVCEAGLTQASQDSH
# Tests used:
# Test in all cases: glycan array binding signal (z-score within array); higher = stronger binding
# Conditions in all cases: glycan notation: IUPAC condensed, linker removed
# [1] = biological target: GlcNAc(b1-2)Gal(b1-3)GalNAc
# How it was run: (§1)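 The Consortium for Functional Glycomics database supplied 3228 glycan arrays, of which those lacking an available protein sequence were dropped. The binding signal, a within-array Z-score, was averaged across arrays of the same protein sequence and across linkers. Negative scores can be read as non-binding.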
# [2] = biological target: GlcNAc(b1-2)Man(a1-3)[GlcNAc(b1-2)Man(a1-6)]Man(b1-4)GlcNAc(b1-4)GlcNAc
# How it was run: as §1
# [3] = biological target: GlcNAc(b1-2)Man(a1-3)[GlcNAc(b1-2)Man(a1-6)]Man(b1-4)GlcNAc(b1-4)[Fuc(a1-6)]GlcNAc
# How it was run: as §1
# [4] = biological target: GlcNAc(b1-2)Man(a1-3)[GlcNAc(b1-4)][GlcNAc(b1-2)Man(a1-6)]Man(b1-4)GlcNAc(b1-4)GlcNAc
# How it was run: as §1
# [5] = biological target: GlcNAc(b1-2)Man(a1-3)[GlcNAc(b1-4)][GlcNAc(b1-2)Man(a1-6)]Man(b1-4)GlcNAc(b1-4)[Fuc(a1-6)]GlcNAc
# How it was run: as §1
# [6] = biological target: GlcNAc(b1-2)[GlcNAc(b1-4)]Man(a1-3)[GlcNAc(b1-2)Man(a1-6)]Man(b1-4)GlcNAc(b1-4)GlcNAc
# How it was run: as §1
# [7] = biological target: GlcNAc(b1-2)[GlcNAc(b1-4)]Man(a1-3)[GlcNAc(b1-4)][GlcNAc(b1-2)Man(a1-6)]Man(b1-4)GlcNAc(b1-4)GlcNAc
# How it was run: as §1
# [8] = biological target: GlcNAc(b1-2)[GlcNAc(b1-4)]Man(a1-3)[GlcNAc(b1-4)][GlcNAc(b1-2)[GlcNAc(b1-6)]Man(a1-6)]Man(b1-4)GlcNAc(b1-4)GlcNAc
# How it was run: as §1
# [9] = biological target: GlcNAc(b1-2)[GlcNAc(b1-4)]Man(a1-3)[GlcNAc(b1-4)][GlcNAc(b1-2)[GlcNAc(b1-6)]Man(a1-6)]Man(b1-4)GlcNAc(b1-4)[Fuc(a1-6)]GlcNAc
# How it was run: as §1
# [10] = biological target: GlcNAc(b1-2)[GlcNAc(b1-6)]Man(a1-6)[GlcNAc(b1-2)Man(a1-3)]Man(b1-4)GlcNAc(b1-4)GlcNAc
# How it was run: as §1
# [11] = biological target: GlcNAc(b1-2)[GlcNAc(b1-6)]Man(a1-6)[GlcNAc(b1-2)Man(a1-3)]Man(b1-4)GlcNAc(b1-4)[Fuc(a1-6)]GlcNAc
# How it was run: as §1
# [12] = biological target: GlcNAc(b1-2)[GlcNAc(b1-6)]Man(a1-6)[GlcNAc(b1-4)][GlcNAc(b1-2)Man(a1-3)]Man(b1-4)GlcNAc(b1-4)GlcNAc
# How it was run: as §1
# GlcNAc(b1-3)Fuc = biological target: GlcNAc(b1-3)Fuc
# How it was run: as §1
# GlcNAc(b1-3)Gal = biological target: GlcNAc(b1-3)Gal
# How it was run: as §1
# [13] = biological target: GlcNAc(b1-3)Gal(b1-3)GalNAc
# How it was run: as §1
# GlcNAc(b1-3)Gal(b1-4)Glc = biological target: GlcNAc(b1-3)Gal(b1-4)Glc
# How it was run: as §1
# [14] = biological target: GlcNAc(b1-3)Gal(b1-4)GlcNAc
# How it was run: as §1
# [15] = biological target: GlcNAc(b1-3)Gal(b1-4)GlcNAc(b1-2)Man(a1-3)[GlcNAc(b1-3)Gal(b1-4)GlcNAc(b1-2)Man(a1-6)]Man(b1-4)GlcNAc(b1-4)GlcNAc
# How it was run: as §1
# [16] = biological target: GlcNAc(b1-3)Gal(b1-4)GlcNAc(b1-2)Man(a1-3)[GlcNAc(b1-3)Gal(b1-4)GlcNAc(b1-2)Man(a1-6)]Man(b1-4)GlcNAc(b1-4)[Fuc(a1-6)]GlcNAc
# How it was run: as §1
# [17] = biological target: GlcNAc(b1-3)Gal(b1-4)GlcNAc(b1-2)[GlcNAc(b1-3)Gal(b1-4)GlcNAc(b1-6)]Man(a1-6)[GlcNAc(b1-3)Gal(b1-4)GlcNAc(b1-2)Man(a1-3)]Man(b1-4)GlcNAc(b1-4)GlcNAc
# How it was run: as §1
# [18] = biological target: GlcNAc(b1-3)Gal(b1-4)GlcNAc(b1-3)Gal(b1-4)GlcNAc
# How it was run: as §1
# [19] = biological target: GlcNAc(b1-3)Gal(b1-4)GlcNAc(b1-3)Gal(b1-4)GlcNAc(b1-2)Man(a1-3)[GlcNAc(b1-3)Gal(b1-4)GlcNAc(b1-3)Gal(b1-4)GlcNAc(b1-2)Man(a1-6)]Man(b1-4)GlcNAc(b1-4)GlcNAc
# How it was run: as §1
# [20] = biological target: GlcNAc(b1-3)Gal(b1-4)GlcNAc(b1-3)Gal(b1-4)GlcNAc(b1-2)Man(a1-3)[GlcNAc(b1-3)Gal(b1-4)GlcNAc(b1-3)Gal(b1-4)GlcNAc(b1-2)Man(a1-6)]Man(b1-4)GlcNAc(b1-4)[Fuc(a1-6)]GlcNAc
# How it was run: as §1
# [21] = biological target: GlcNAc(b1-3)Gal(b1-4)GlcNAc(b1-3)Gal(b1-4)GlcNAc(b1-2)[GlcNAc(b1-3)Gal(b1-4)GlcNAc(b1-3)Gal(b1-4)GlcNAc(b1-6)]Man(a1-6)[GlcNAc(b1-3)Gal(b1-4)GlcNAc(b1-3)Gal(b1-4)GlcNAc(b1-2)Man(a1-3)]Man(b1-4)GlcNAc(b1-4)[Fuc(a1-6)]GlcNAc
# How it was run: as §1
# [22] = biological target: GlcNAc(b1-3)Gal(b1-4)GlcNAc(b1-3)Gal(b1-4)GlcNAc(b1-3)Gal(b1-4)GlcNAc(b1-2)Man(a1-3)[GlcNAc(b1-3)Gal(b1-4)GlcNAc(b1-3)Gal(b1-4)GlcNAc(b1-3)Gal(b1-4)GlcNAc(b1-2)Man(a1-6)]Man(b1-4)GlcNAc(b1-4)GlcNAc
# How it was run: as §1
# [23] = biological target: GlcNAc(b1-3)Gal(b1-4)GlcNAc(b1-3)Gal(b1-4)GlcNAc(b1-3)Gal(b1-4)GlcNAc(b1-2)Man(a1-3)[GlcNAc(b1-3)Gal(b1-4)GlcNAc(b1-3)Gal(b1-4)GlcNAc(b1-3)Gal(b1-4)GlcNAc(b1-2)Man(a1-6)]Man(b1-4)GlcNAc(b1-4)[Fuc(a1-6)]GlcNAc
# How it was run: as §1
# [24] = biological target: GlcNAc(b1-3)Gal(b1-4)GlcNAc(b1-3)Gal(b1-4)GlcNAc(b1-3)Gal(b1-4)GlcNAc(b1-2)[GlcNAc(b1-3)Gal(b1-4)GlcNAc(b1-3)Gal(b1-4)GlcNAc(b1-3)Gal(b1-4)GlcNAc(b1-6)]Man(a1-6)[GlcNAc(b1-3)Gal(b1-4)GlcNAc(b1-3)Gal(b1-4)GlcNAc(b1-3)Gal(b1-4)GlcNAc(b1-2)Man(a1-3)]Man(b1-4)GlcNAc(b1-4)[Fuc(a1-6)]GlcNAc
# How it was run: as §1
# [25] = biological target: GlcNAc(b1-3)Gal(b1-4)GlcNAc(b1-3)Gal(b1-4)GlcNAc(b1-3)Gal(b1-4)GlcNAc(b1-3)Gal(b1-4)GlcNAc(b1-2)Man(a1-3)[GlcNAc(b1-3)Gal(b1-4)GlcNAc(b1-3)Gal(b1-4)GlcNAc(b1-3)Gal(b1-4)GlcNAc(b1-3)Gal(b1-4)GlcNAc(b1-2)Man(a1-6)]Man(b1-4)GlcNAc(b1-4)GlcNAc
# How it was run: as §1
# [26] = biological target: GlcNAc(b1-3)Gal(b1-4)GlcNAc(b1-3)Gal(b1-4)GlcNAc(b1-3)Gal(b1-4)GlcNAc(b1-3)Gal(b1-4)GlcNAc(b1-2)Man(a1-3)[GlcNAc(b1-3)Gal(b1-4)GlcNAc(b1-3)Gal(b1-4)GlcNAc(b1-3)Gal(b1-4)GlcNAc(b1-3)Gal(b1-4)GlcNAc(b1-2)Man(a1-6)]Man(b1-4)GlcNAc(b1-4)[Fuc(a1-6)]GlcNAc
# How it was run: as §1
# [27] = biological target: GlcNAc(b1-3)Gal(b1-4)GlcNAc(b1-3)Gal(b1-4)GlcNAc(b1-3)Gal(b1-4)GlcNAc(b1-3)Gal(b1-4)GlcNAc(b1-2)[GlcNAc(b1-3)Gal(b1-4)GlcNAc(b1-3)Gal(b1-4)GlcNAc(b1-3)Gal(b1-4)GlcNAc(b1-3)Gal(b1-4)GlcNAc(b1-6)]Man(a1-6)[GlcNAc(b1-3)Gal(b1-4)GlcNAc(b1-3)Gal(b1-4)GlcNAc(b1-3)Gal(b1-4)GlcNAc(b1-3)Gal(b1-4)GlcNAc(b1-2)Man(a1-3)]Man(b1-4)GlcNAc(b1-4)[Fuc(a1-6)]GlcNAc
# How it was run: as §1
# [28] = biological target: GlcNAc(b1-3)Gal(b1-4)GlcNAc(b1-3)Gal(b1-4)GlcNAc(b1-3)GalNAc
# How it was run: as §1
# [29] = biological target: GlcNAc(b1-3)Gal(b1-4)GlcNAc(b1-3)GalNAc
# How it was run: as §1
# [30] = biological target: GlcNAc(b1-3)Gal(b1-4)GlcNAc(b1-3)[GlcNAc(b1-3)Gal(b1-4)GlcNAc(b1-3)]GalNAc
# How it was run: as §1
# [31] = biological target: GlcNAc(b1-3)Gal(b1-4)GlcNAc(b1-6)[Gal(b1-3)]GalNAc
# How it was run: as §1
# [32] = biological target: GlcNAc(b1-3)Gal(b1-4)GlcNAc(b1-6)[GlcNAc(b1-3)Gal(b1-3)]GalNAc
# How it was run: as §1
# [33] = biological target: GlcNAc(b1-3)Gal(b1-4)GlcNAc(b1-6)[GlcNAc(b1-3)]Gal(b1-4)GlcNAc
# How it was run: as §1
# GlcNAc(b1-3)GalNAc = biological target: GlcNAc(b1-3)GalNAc
# How it was run: as §1
binder,measurement,setting,value
B1,glycan array binding signal (z-score),[1],-0.437
same,glycan array binding signal (z-score),[2],-0.449
same,glycan array binding signal (z-score),[3],-0.436
same,glycan array binding signal (z-score),[4],-0.444
same,glycan array binding signal (z-score),[5],-0.453
same,glycan array binding signal (z-score),[6],-0.453
same,glycan array binding signal (z-score),[7],-0.436
same,glycan array binding signal (z-score),[8],-0.456
same,glycan array binding signal (z-score),[9],-0.448
same,glycan array binding signal (z-score),[10],-0.446
same,glycan array binding signal (z-score),[11],-0.461
same,glycan array binding signal (z-score),[12],-0.429
same,glycan array binding signal (z-score),GlcNAc(b1-3)Fuc,-0.428
same,glycan array binding signal (z-score),GlcNAc(b1-3)Gal,-0.448
same,glycan array binding signal (z-score),[13],-0.404
same,glycan array binding signal (z-score),GlcNAc(b1-3)Gal(b1-4)Glc,-0.44
same,glycan array binding signal (z-score),[14],-0.443
same,glycan array binding signal (z-score),[15],-0.454
same,glycan array binding signal (z-score),[16],-0.373
same,glycan array binding signal (z-score),[17],-0.195
same,glycan array binding signal (z-score),[18],-0.456
same,glycan array binding signal (z-score),[19],-0.41
same,glycan array binding signal (z-score),[20],-0.377
same,glycan array binding signal (z-score),[21],-0.416
same,glycan array binding signal (z-score),[22],-0.414
same,glycan array binding signal (z-score),[23],-0.364
same,glycan array binding signal (z-score),[24],-0.429
same,glycan array binding signal (z-score),[25],-0.38
same,glycan array binding signal (z-score),[26],-0.368
same,glycan array binding signal (z-score),[27],-0.405
same,glycan array binding signal (z-score),[28],-0.405
same,glycan array binding signal (z-score),[29],-0.438
same,glycan array binding signal (z-score),[30],-0.439
same,glycan array binding signal (z-score),[31],-0.415
same,glycan array binding signal (z-score),[32],-0.431
same,glycan array binding signal (z-score),[33],-0.455
same,glycan array binding signal (z-score),GlcNAc(b1-3)GalNAc,-0.426
